Values marked as one replicate rest on one cluster of the flow cell; about a third of the high ones do not repeat.

The test system of the data set is ATP. Description: switch fluorescence ratio, 500 uM ATP over buffer (Cy3 cluster intensity, sum of 5 cycles each) (fold (ratio)); higher = stronger signal-on switching upon ATP binding; sequences stand for … in TCGTCGGCAGCGTCAGATGTGTATAAGAGACAGTTTTTTTTTTTTTTTTTTTTTTTTT…TC. The conditions noted are these: aptamer strand: ATP DNA aptamer (quencher-CACCTGGGGGAGTATTGCGGAGGAAGG + anchor), 100 nM annealed; ATP concentration: 500 uM; one replicate. A digest of the protocol:
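For every switch-domain sequence, the fluorescence ratio is the mean of per-cluster values, each being summed target-cycle Cy3 intensity over summed buffer-cycle Cy3 intensity. Clusters outside 100-1000 RFU were excluded. On a modified Illumina MiSeq flow-cell, the Cy3-labelled switching-strand clusters were annealed to 100 nM quencher-labelled ATP aptamer, imaged in selection buffer and then after 15 min with 500 uM ATP at 22 °C. Five such cycles were run, with NaOH stripping and re-annealing between them.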
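Also: ATP exposure 15 min at 22 °C before imaging.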

As for CTCCATTACC, the switch fluorescence ratio came out at 1.38. Under AGGATGAAGG stands 0.972; under TCCCCATAAC, 1.38; under AATTGAGACT, 1.03. Take CGTGCCACTA: the switch fluorescence ratio stood at 1.

For the sequence TAGGTAGCCC, the switch fluorescence ratio came to 1.02. Then AGATGCCCCG, with 1.04. Under GAGCGACTTG stands 0.996.

As to CAGTATGGG, the switch fluorescence ratio came out at 0.985. Consider ATGGGCCAGT, for which the switch fluorescence ratio was found to be 0.996. Then CAAGAGGTTT, with 0.964.

For the sequence AGCTAAAAAA, the switch fluorescence ratio turned out to be 1.01. Under ATATCCTTTT stands 1.03. Then CTCCACGAAT, with 1.42; and ATTATTATA, with 0.999; and TTCACAGGTT, with 1.11.

For the sequence GGGACAGATT, the switch fluorescence ratio was found to be 1.01. Regarding AGAGCGTTCT, the switch fluorescence ratio is 0.972. Then TAAGAACGC, with 0.963.

With CTGTGCCAGA, the switch fluorescence ratio was 1.02. For ACACTACATT, the switch fluorescence ratio worked out at 1.26. For the sequence GGAGTATGTA, the switch fluorescence ratio was determined as 0.99.

As for ACTATAGTTA, the switch fluorescence ratio turned out to be 0.976. Under TGGCGCGGGG stands 0.976; under GCGATCCCAA, 1.09. For GCGCGGCAGG, the switch fluorescence ratio is 1.05.

As to ATAGGGAAAG, the switch fluorescence ratio was found to be 0.981. For TGCCGATGGA, the switch fluorescence ratio was found to be 0.994.

Consider TGACCTTCAG, for which the switch fluorescence ratio stood at 0.963. Take GCACCAGTCT: the switch fluorescence ratio amounted to 1.03. For the sequence TCTCTCTGGA, the switch fluorescence ratio came to 0.989.

As to CACGCTCTAC, the switch fluorescence ratio was found to be 3.28. For CCTAGCTAAA, the switch fluorescence ratio was found to be 1.33. Then CTTTGGTTAT, with 1.03; and GGAATTATGG, with 0.943. Under TAAGCCAGCT stands 0.981.

CCCGGAATCC: the switch fluorescence ratio amounted to 1.29. Under AAGCAGCATC stands 1.14; under TCGGACTGGT, 0.987; under CTAGATGTT, 1.01. Under CAAGGGGCTT stands 0.991. Consider TCTGTGACTG, for which the switch fluorescence ratio worked out at 0.983.

TAATCTGTTT: the switch fluorescence ratio stood at 0.991. Under ACACGGTAAC stands 1.09; under CTCTTTACTT, 0.989; under GGGAGAGATA, 0.991. Consider GAACCGGGGT, for which the switch fluorescence ratio turned out to be 0.924. Then TTTCGATCGT, with 1.01. Under ACCTAACCT stands 1.77; under GAAGTCGTCT, 1.02. Under GCTTTTCCGA stands 1.03.

AACAATATGT: the switch fluorescence ratio came to 1. Then CAGAGCACCC, with 1.06. As for CACGACATAG, the switch fluorescence ratio stood at 1. Consider GACCAGGTAC, for which the switch fluorescence ratio turned out to be 1.31. Under TTGCTAAGGT stands 0.983; under GGGGGCTCAA, 1.03. CAATATCGGA: the switch fluorescence ratio was 0.992. Then ATGACCTGAG, with 1.02. Under CGATAACAGA stands 0.975; under CAAAATTAAT, 0.987. GACACCATCA: the switch fluorescence ratio was determined as 1.02. Under TATACGTCTG stands 1.05; under CTGGAGGCCT, 0.971. Regarding CGGTTTACCG, the switch fluorescence ratio came out at 0.951. Under GGCTTTGGGA stands 0.967; under CGAGAGGTGT, 1.06; under CGGATGAAAA, 0.961. In the case of CCAATTTT, the switch fluorescence ratio amounted to 1.01. Under TAACTTGCCA stands 1; under TGCGATAGA, 1.07; under ATCGGTTGAC, 0.992.

TGTCTTAGCA: the switch fluorescence ratio came out at 1.01. Take ATGGATTCAC: the switch fluorescence ratio is 0.992. Then AGATGGGAGT, with 0.973. Then GCTCGCCTCC, with 1.43; and TTGGTCCTGC, with 1.02.

With CATCGGCT, the switch fluorescence ratio was 1.2. For TAAACCGTGC, the switch fluorescence ratio was found to be 2.29. Then CGGAAATCTT, with 1.01; and TGACGTCGCT, with 0.971. Regarding TCGTCCGGGT, the switch fluorescence ratio stood at 0.994.

Take AAAGTAGCGA: the switch fluorescence ratio is 0.998. For GGGATCACAT, the switch fluorescence ratio came to 1. In the case of GACTTTATAT, the switch fluorescence ratio turned out to be 1.01.

Take CATATCACTT: the switch fluorescence ratio was 1.02. With AATTAGTT, the switch fluorescence ratio stood at 1.01. Then GACGGGCAAC, with 6.33; and GCCAATTGTC, with 1.04. As for ACGGGTCCCG, the switch fluorescence ratio was 0.96. Regarding GGAAAAGCTT, the switch fluorescence ratio worked out at 1.02. Then TAATTCTGTA, with 1.05.

Turning to CCCCTACAGG, the switch fluorescence ratio was 1.24. Regarding GGTGTTCTAT, the switch fluorescence ratio stood at 0.996. Under AGGTTACCTT stands 1.04; under GAGGAACTA, 1.02; under CTAGGTTGTA, 1.02. Then CCTGACACAT, with 1.14. Under TGTGAGAGAG stands 0.971; under ATCCATACAC, 1.16.

Turning to GGGTACTTTA, the switch fluorescence ratio amounted to 1.01. On to GCAGAAGGTT, for which the switch fluorescence ratio turned out to be 1.17. Consider ATCCCGGAAG, for which the switch fluorescence ratio was 1.01. As for TAATTCAGTG, the switch fluorescence ratio was found to be 0.961.

With TGGTGATCTT, the switch fluorescence ratio turned out to be 0.991. As for TAGCTAGCTG, the switch fluorescence ratio was determined as 0.974.

As to AGTGACCCGT, the switch fluorescence ratio turned out to be 1.03. Under TCCGAGAAGC stands 1.45; under CGATTCGGT, 0.998. Under TCGCATTATA stands 1.53; under CGTGGAATAG, 1.21. Then CAGATTACTT, with 1.21. With TACTTCCAAT, the switch fluorescence ratio was determined as 1.42. For CTATACAAAA, the switch fluorescence ratio came to 0.979.

AAATATATCA: the switch fluorescence ratio stood at 1.03.

For the sequence CATTTAAATC, the switch fluorescence ratio was 0.964. For TTTTTGGTCA, the switch fluorescence ratio came to 0.989. Under TGTGTTGAAT stands 0.959; under TCGCATACAA, 2.01. Under TTCACGTCGG stands 1.03.

(Values after the supplement of paper PMC10126150.)
